Some of the results follow.
Key:
[1] = system: HSkMC (human skeletal muscle cells); test: cytotoxicity call (relative viability < 0.9); details: 10 µM
[2] = system: HepG2; test: cytotoxicity call (relative viability < 0.9); details: 10 µM
[3] = system: S. aureus RN4220; test: growth inhibition call (relative growth <= 0.2); details: 50 µM

Compound	cytotoxicity call [1]	cytotoxicity call [2]	growth inhibition call [3]
CC(C)C[C@H](NC(=O)[C@@H](NC(=O)CNC(=O)CN)C(C)C)C(=O)N[C@H](C(=O)N[C@@H](CCC(N)=O)C(=O)N1CCC[C@H]1C(=O)NCC(=O)O)C(C)C	inactive	inactive	inactive
C[C@@H]1CN([C@@H](C)CO)C(=O)Cc2cc(NC(=O)Nc3cccc4ccccc34)ccc2O[C@@H]1CN(C)Cc1ccncc1	inactive	active	inactive
CC(C)(O)CCC(O)C(C)(O)C1CCC2(O)C3=CC(=O)C4CC(O)C(O)CC4(C)C3CCC12C (stereo not drawn)	inactive	inactive	inactive
C[C@@H]1CN([C@H](C)CO)C(=O)Cc2cc(NC(=O)C3CC3)ccc2O[C@@H]1CN(C)S(=O)(=O)c1cccs1	inactive	inactive	inactive
CO[C@H]1CN(C)C(=O)c2cc(NC(=O)c3ccccc3)ccc2OC[C@H](C)N(C(=O)CN(C)C)C[C@H]1C	inactive	inactive	inactive
CO[C@H]1/C=C\C=C(/C)C(=O)NC2=CC(=O)C=C(C2=O)[C@H](OC)[C@@H](C)C[C@H](OC)[C@H](O)[C@@H](C)/C=C(\C)[C@@H]1OC(N)=O	inactive	inactive	inactive
Cc1noc(C)c1NC(=O)Nc1ccc2c(c1)C(=O)N([C@@H](C)CO)C[C@@H](C)[C@@H](CN(C)S(=O)(=O)c1ccc(F)cc1)OCCCC[C@@H](C)O2	inactive	inactive	inactive
CCCN(C)C[C@@H]1OCCCC[C@H](C)Oc2ccc(NC(=O)CCC(F)(F)F)cc2C(=O)N([C@H](C)CO)C[C@@H]1C	inactive	inactive	inactive
C[C@@H]1CCCCO[C@H](CN(C)C(=O)Nc2ccc(C(F)(F)F)cc2)[C@H](C)CN([C@@H](C)CO)C(=O)c2cc(N(C)C)ccc2O1	inactive	inactive	inactive
CS(=O)(=O)c1ncc(Cl)c(C(=O)NCCc2ccc(S(N)(=O)=O)cc2)n1	inactive	inactive	inactive
CCCn1nc(C)c(CN)c1C	inactive	inactive	inactive
OCC1(CO)COC2(CCCCC2)N1	inactive	inactive	inactive
CNCC(O)c1cccc(O)c1.Cl (stereo not drawn)	inactive	inactive	inactive
COCC#Cc1ccc([C@H]2[C@H](CO)N3C(=O)CN(C(=O)c4cccnc4)C[C@@H]23)cc1	inactive	inactive	inactive
N[C@@H]1[C@H]2CN(c3nc4c(cc3F)c(=O)c(C(=O)O)cn4-c3ccc(F)cc3F)C[C@@H]12	inactive	inactive	active
Cc1noc(C)c1NC(=O)Nc1ccc2c(c1)CC(=O)N([C@H](C)CO)C[C@H](C)[C@H](CN(C)Cc1ccc(Oc3ccccc3)cc1)O2	inactive	inactive	inactive
C[C@@H]1CCCCO[C@@H](CN(C)Cc2ccccc2)[C@@H](C)CN([C@H](C)CO)C(=O)c2cc(NC(=O)Cc3ccccc3)ccc2O1	inactive	inactive	inactive
CN1C(=O)c2cc(NC(=O)C3CCOCC3)ccc2OC[C@H]2O[C@H](CC(=O)NCc3ccc4c(c3)OCO4)CC[C@H]21	inactive	inactive	inactive
Cc1ccc(S(=O)(=O)N(C)C[C@@H]2Oc3cc(Br)ccc3S(=O)(=O)N([C@@H](C)CO)C[C@H]2C)cc1	inactive	inactive	inactive
Cc1noc(C)c1NC(=O)N(C)C[C@@H]1Oc2c(NC(=O)c3ccncc3)cccc2C(=O)N([C@@H](C)CO)C[C@H]1C	inactive	inactive	inactive
CC(C)CC#Cc1ccc2c(c1)O[C@H](CN(C)C(=O)c1cnccn1)[C@@H](C)CN([C@H](C)CO)S2(=O)=O	inactive	inactive	inactive
COc1ccc(S(=O)(=O)Nc2ccc3c(c2)C(=O)N([C@H](C)CO)C[C@H](C)[C@@H](CN(C)C(=O)Nc2ccccc2)OCCCC[C@@H](C)O3)cc1	inactive	inactive	inactive
Cc1ccc(S(=O)(=O)Nc2ccc3c(c2)C(=O)N([C@H](C)CO)C[C@@H](C)[C@H](CN(C)S(=O)(=O)c2ccc(F)cc2)OCCCC[C@H](C)O3)cc1	inactive	inactive	inactive
Cc1ccc(S(=O)(=O)N(C)C[C@@H]2Oc3ncc(Br)cc3C(=O)N([C@@H](C)CO)C[C@@H]2C)cc1	inactive	inactive	inactive
O=C(C[C@H]1C[C@@H]2c3cc(NC(=O)c4cccnc4)ccc3O[C@@H]2[C@H](CO)O1)NCc1cc(F)ccc1F	inactive	inactive	inactive
COc1ccc(S(=O)(=O)N(C)C[C@@H]2OCCCC[C@@H](C)Oc3ccc(NS(=O)(=O)c4ccc(Cl)cc4)cc3C(=O)N([C@H](C)CO)C[C@@H]2C)cc1	inactive	inactive	inactive
